This is one part of the list. Cleavage of a single-stranded DNA pool by Rep nickase domains was read by sequencing at 3 µM enzyme and 37 °C for 1 h; the strands have 90 letters, of which the middle is given. Values are log2 of uncut reads against the no-enzyme pool; strong cutting gives strongly negative numbers. There is no active / inactive call. The scaling is to total reads, so uncut sequences can rise above 0 when many others are cut.
Assays:
Assay in all cases: uncleaved DNA left, log2 of reads against the no-enzyme library (log2 ratio); higher = less cleavage (more negative = more Rep cleavage of the k-mer); sequences stand for … in CTCGTCCG…ACCGGAGA
[1] = tested on: T1, Rep nickase domain of Muscovy duck circovirus
T1 sequence (Rep 1-111, printed without the tag): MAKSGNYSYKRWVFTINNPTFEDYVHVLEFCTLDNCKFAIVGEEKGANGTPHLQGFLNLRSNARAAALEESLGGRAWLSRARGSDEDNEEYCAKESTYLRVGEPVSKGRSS
Method: (§1)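 A pool of 90-nt single-stranded DNAs with seven random bases just before the constant AC of the nick site (name = the seven bases) was cut by 3 µM recombinant His6-SUMO-tagged Rep nickase domain (300 nM DNA, 50 mM HEPES pH 8.0, 50 mM NaCl, 1 mM MnCl2, 1 h, 37 °C, three replicates). Uncut DNA was amplified and sequenced.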

[2] = tested on: T2, Rep nickase domain of banana bunchy top virus
T2 sequence (Rep 1-94, printed without the tag): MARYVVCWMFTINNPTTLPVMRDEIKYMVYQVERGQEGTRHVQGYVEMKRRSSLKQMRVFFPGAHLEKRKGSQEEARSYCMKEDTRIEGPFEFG
Method: as §1

[3] = tested on: T3, Rep nickase domain of cabbage leaf curl virus
T3 sequence (Rep 1-116, printed without the tag): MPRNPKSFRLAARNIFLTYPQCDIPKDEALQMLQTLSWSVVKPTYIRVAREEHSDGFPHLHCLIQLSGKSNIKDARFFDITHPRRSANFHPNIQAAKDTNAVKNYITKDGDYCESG
Method: as §1

[4] = tested on: T4, Rep nickase domain of chickpea chlorotic dwarf virus
T4 sequence (Rep 1-124, printed without the tag): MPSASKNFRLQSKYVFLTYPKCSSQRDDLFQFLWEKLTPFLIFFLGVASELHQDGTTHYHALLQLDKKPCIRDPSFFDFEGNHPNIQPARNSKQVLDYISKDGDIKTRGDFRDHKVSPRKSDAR
Method: as §1

[5] = tested on: T5, Rep nickase domain of faba bean necrotic yellows virus
T5 sequence (Rep 1-98, printed without the tag): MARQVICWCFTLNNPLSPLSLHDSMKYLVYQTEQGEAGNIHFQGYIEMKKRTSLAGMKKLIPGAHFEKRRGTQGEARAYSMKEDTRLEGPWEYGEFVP
Method: as §1

[6] = tested on: T6, Rep nickase domain of maize striate mosaic virus
T6 sequence (Rep 1-117, printed without the tag): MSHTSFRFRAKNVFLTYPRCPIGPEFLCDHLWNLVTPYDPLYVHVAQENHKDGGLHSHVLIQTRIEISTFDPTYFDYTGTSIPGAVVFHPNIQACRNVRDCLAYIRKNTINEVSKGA
Method: as §1

[7] = tested on: T7, Rep nickase domain of porcine circovirus 2
T7 sequence (Rep 2-116, printed without the tag): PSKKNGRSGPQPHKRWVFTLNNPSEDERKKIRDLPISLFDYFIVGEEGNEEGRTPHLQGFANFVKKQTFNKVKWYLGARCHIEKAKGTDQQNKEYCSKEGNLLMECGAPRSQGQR
Method: as §1

[8] = tested on: T8, Rep nickase domain of tomato yellow leaf curl virus
T8 sequence (Rep 1-136, printed without the tag): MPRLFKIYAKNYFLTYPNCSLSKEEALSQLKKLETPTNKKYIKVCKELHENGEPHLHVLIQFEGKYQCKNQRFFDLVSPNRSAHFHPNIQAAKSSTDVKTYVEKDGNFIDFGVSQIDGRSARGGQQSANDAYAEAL
Method: as §1

[9] = tested on: T9, Rep nickase domain of wheat dwarf virus
T9 sequence (Rep 1-137, printed without the tag): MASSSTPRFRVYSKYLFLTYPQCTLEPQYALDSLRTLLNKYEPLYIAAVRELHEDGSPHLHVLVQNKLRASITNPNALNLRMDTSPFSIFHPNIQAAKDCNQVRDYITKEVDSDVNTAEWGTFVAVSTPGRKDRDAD
Method: as §1

Row | Sequence | uncleaved DNA left (log2) [1] | uncleaved DNA left (log2) [2] | uncleaved DNA left (log2) [3] | uncleaved DNA left (log2) [4] | uncleaved DNA left (log2) [5] | uncleaved DNA left (log2) [6] | uncleaved DNA left (log2) [7] | uncleaved DNA left (log2) [8] | uncleaved DNA left (log2) [9]
1 | GTGGTCG | 0.2 | -0.00541 | -0.254 | 0.0517 | 0.0807 | -0.334 | 0.22 | 0.121 | 0.0757
2 | TCAGGTG | 0.141 | -0.000714 | -0.256 | -0.228 | 0.0315 | -0.659 | 0.0671 | 0.0299 | 0.052
3 | TCATGGA | 0.0689 | -0.00798 | -0.00785 | 0.00883 | -0.0552 | -0.677 | 0.0572 | -0.0341 | -0.0514
4 | CTACTAG | 0.0302 | -0.0836 | -0.862 | -1.23 | 0.0682 | -1.13 | 0.0869 | 0.095 | -0.0496
5 | GTGGCGG | 0.117 | -0.0341 | 0.351 | 0.831 | -0.0705 | 1.03 | 0.102 | -0.101 | -0.0388
6 | GTAGGAC | -0.0739 | 0.0606 | 0.735 | 1.82 | -0.0523 | 1.92 | 0.191 | 0.0629 | 0.138
7 | GCACGCT | -0.0834 | -0.0623 | -0.421 | -1.46 | 0.0722 | -0.726 | 0.0288 | 0.00285 | -0.0843
8 | ACCAGCC | 0.000746 | 0.0729 | -0.331 | -0.522 | 0.126 | -0.888 | 0.193 | 0.0614 | -0.0251
9 | GTTGTAA | 0.076 | 0.177 | 0.381 | 0.928 | 0.129 | 1.89 | 0.135 | 0.15 | 0.15
10 | CTGCGGG | -0.0212 | -0.0491 | -0.462 | -0.377 | 0.0141 | -0.971 | 0.037 | -0.103 | -0.255
11 | CTTCTCC | -0.0148 | -0.0477 | -0.0327 | 0.0483 | -0.0348 | 0.924 | 0.0379 | 0.00151 | 0.0349
12 | TACACAG | 0.0458 | -0.0328 | -0.692 | -0.76 | -0.0193 | -0.98 | 0.152 | -0.00304 | -0.109
13 | ATACGGC | 0.0392 | -0.104 | -0.193 | -0.331 | -0.0464 | -0.904 | -0.0671 | -0.0656 | -0.0409
14 | GGCTTCG | 0.121 | -0.0586 | -0.00637 | -0.0957 | -0.0457 | -0.388 | 0.195 | 0.136 | 0.0997
15 | TAACTAA | 0.0579 | 0.109 | -0.408 | -2.55 | 0.148 | -0.418 | 0.106 | 0.207 | 0.00306
